ChEMBL document CHEMBL4888484, “Replenishing the malaria drug discovery pipeline: Screening and hit evaluation of the MMV Hit Generation Library 1 (HGL1) against asexual blood stage Plasmodium falciparum ,using a nano luciferase reporter read-out” (2022)
About 540 (0.36%) of roughly 150,000 compounds showed an effect of 50% or more. This is one part of the list.

system: Plasmodium falciparum; assay: Primary screen in NF54 nanoGlo assay, in single point, at 2uM, 72h; a lower Z score goes with more inhibition; format: functional, Erythrocyte; settings: timepoint 72 hour

| Compound | % Inhibition | Z score |
| --- | --- | --- |
| Cc1ccc(-c2nc(C)c(C(=O)O)c(=O)[nH]2)o1 | -9% | 1.16 |
| COC(=O)N1CCC(NCc2nc3ccccc3n2C)CC1 | -4% | 0.62 |
| COc1cc([C@H]2C(=O)N(C3CCCC3)CC(=O)N2CCc2ccc(Cl)cc2)ccc1OC(C)C | 0% | -0.03 |
| O=C(NCc1ccncc1)c1csc2nc(-c3ccccc3Cl)cn12 | -18% | 2.43 |
| Cc1[nH]c(=O)c(C(=O)N[C@H](CO)Cc2c[nH]c3ccccc23)c(C)c1Cl | -7% | 1.26 |
| Cc1nccn1CCCC(=O)Nc1ccn(C(C)(C)C)n1 | 0% | -0.04 |
| Cc1cc(CN)cc(NC(=O)CNC(=O)NC2CCCCC2)c1 | -1% | 0.08 |
| O=C([C@@H]1CCCCn2nnnc21)N1CCC(c2ncon2)CC1 | -6% | 0.8 |
| COC(CNC(=O)N(C)C(C)c1ccncc1)c1cccc(Cl)c1 (centres undefined) | 1% | -0.15 |
| CCS(=O)(=O)N1CCC[C@H](c2cc(-c3ccc(F)cc3)n[nH]2)C1 | 2% | -0.29 |
| Cc1nnc(CN(C)[C@H]2CCN(C(C)(C)C)C2=O)n1C | -24% | 3.61 |
| CN1CCNC(=O)C[C@@H]2CN(S(=O)(=O)c3ccc(Cl)c(Cl)c3)C[C@@H]2n2cc(nn2)Cn2cccc(c2=O)C1=O | -8% | 1.43 |
| O=S(=O)(c1ccc(F)cc1)N1CCC2(CC1)C[C@@H](Oc1cnccn1)CCO2 | -5% | 0.83 |
| COc1cccc(CN2CCOC[C@@H]2CC(=O)NCc2c(C)n[nH]c2C)c1 | -7% | 1.31 |
| CCOc1ccccc1NC(=O)c1oc2ccccc2c1NC(=O)C(c1ccccc1)c1ccccc1 | -13% | 2.41 |
| O=C(CC(c1ccccc1)c1ccccc1)N1CCCN(C2CCC2)CC1 | -7% | 1.27 |
| CCN(CCNC(=O)c1nc(C)oc1C)c1ccccc1 | -12% | 1.64 |
| O=C(CC(F)(F)F)N1CC[C@@H](c2cccs2)S(=O)(=O)CC1 | -16% | 2.81 |
| CCc1ccc(CNC(=O)c2ccc(-c3noc(-c4ccccc4)n3)s2)cc1 | 7% | -0.86 |
| CCCCNC(=O)c1cnn(C(C)C)c1N | 3% | -0.33 |
| Cc1ncc(C(=O)N2C[C@@H](C)N(CCO)[C@@H](C)C2)c(C)n1 | -3% | 0.26 |

| Compound | % Inhibition | Z score |
| --- | --- | --- |
| Cc1ccc(C(=O)N(C)CCCNC(=O)OC(C)(C)C)o1 | -3% | 0.6 |
| CC(C)Oc1cncc(-c2ccc3c(c2)CNC3)c1 | 11% | -1.65 |
| Brc1ccc([C@@H]2C[C@H](c3ccc(OCc4ccccc4)cc3)n3ncnc3N2)cc1 | -6% | 1.13 |
| O=C(NCCCN1CCCC1=O)C(=O)Nc1cccc2nonc12 | -13% | 1.42 |
| O=C(NC[C@@H]1C[C@H](F)CN1C(=O)c1n[nH]c2c1CCC2)C1CCCCC1 | -6% | 0.62 |
| O=C1OCCN1c1ccccc1NS(=O)(=O)NCc1ccccc1 | -9% | 1.16 |
| Cc1ccsc1NC(=O)OC(C)(C)C | 35% | -4.49 |
| CCc1ncc2c(NCc3ccco3)nccn12 | -13% | 1.4 |
| O=C(c1cccc(Br)c1)N1CCN(Cc2csc(-c3ccco3)n2)CC1 | -7% | 0.7 |
| c1ccc(-c2ncc3c(n2)CCC[C@@H]3NCc2ncc[nH]2)cc1 | -18% | 1.67 |
| CCOc1ccc(N2C[C@@H](c3nnc(NC(=O)COc4ccccc4C)o3)CC2=O)cc1 | -16% | 2.63 |
| Cc1ccc(-c2ncc(C(=O)NCc3c(C)n[nH]c3C)c(O)n2)cc1 | 10% | -1.44 |
| Cc1nc2n(n1)CCCC2NC1CCCc2sccc21 (centres undefined) | -5% | 0.41 |
| CNc1nccc(OCc2ccccc2)n1 | 38% | -4.96 |
| O=C(NCc1ccccc1-c1ccsc1)c1cccnc1 | -3% | 0.54 |
| CN1CCC(OCCCNC(=O)[C@]2(c3ccccc3)CC23CCCC3)CC1 | 1% | -0.13 |
| CN1C[C@@H](Nc2c(F)cc(C#N)cc2F)CCC1=O | -5% | 0.56 |
| O=C(c1ccc(F)cc1Cl)N1C[C@@H]2CN(C3CCCCC3)C[C@]2(C(=O)O)C1 | -7% | 1.38 |
| O=C(c1cccnc1)N1CCC2(CC1)CN(Cc1ccccc1)C[C@@H]2c1ncco1 | -16% | 2.32 |
| CCn1ccnc1CN1C[C@H](C(=O)O)[C@@H](C2CCCCC2)C1 | 9% | -1.52 |
| O=c1nc(Nc2ccccc2)sn1Cc1ccccc1 | -14% | 2.01 |
